± gives the standard deviation of the averaged measurements. In all, about 4,000 sequences were measured (“arbitrary fluorescence units”: median about 830, highest 2% from about 6,500 on). The list lacks most of the strong results.
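Note: Full-length recombinant human RUNX1 bound to double-stranded DNA microarray spots, detected with an Alexa488-labelled secondary antibody after the anti-RUNX1 primary, read as scanned spot fluorescence.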

UniProt Q01196, sequence (Q01196 whole entry): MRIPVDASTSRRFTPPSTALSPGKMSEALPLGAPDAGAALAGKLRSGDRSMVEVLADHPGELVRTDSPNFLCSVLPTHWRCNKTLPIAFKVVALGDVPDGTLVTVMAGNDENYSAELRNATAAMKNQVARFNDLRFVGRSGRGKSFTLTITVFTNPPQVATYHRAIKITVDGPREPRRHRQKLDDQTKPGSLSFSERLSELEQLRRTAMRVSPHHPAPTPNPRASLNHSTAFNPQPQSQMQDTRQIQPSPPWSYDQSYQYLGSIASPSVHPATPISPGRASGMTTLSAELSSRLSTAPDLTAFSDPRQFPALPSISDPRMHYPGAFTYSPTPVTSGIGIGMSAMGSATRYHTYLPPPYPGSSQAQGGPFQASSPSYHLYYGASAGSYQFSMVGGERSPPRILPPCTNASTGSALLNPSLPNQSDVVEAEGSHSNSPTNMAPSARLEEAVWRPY

The assay has as its target RUNX1 (UniProt Q01196). Put plainly: RUNX1 binding intensity (PBM fluorescence), RUNX1 alone (arbitrary fluorescence units); higher = stronger binding. Conditions: RUNX1 concentration 2 nM; ETS1 concentration 0 nM. The protocol:
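gcPBM on 36-bp genomic-derived probes (partner site mutated) containing one RUNX1 site and no ETS1 site. Recombinant human RUNX1 (2 nM) was incubated alone or with ETS1 (25 nM) and detected by anti-RUNX1 antibody fluorescence. Values are medians over 4 replicate spots (not normalised). The probes sit in constant array flanks that are not printed.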
Turning to ATCAGTCAACCTCCCCCACTCCCTCCCACAAAGAAA, the RUNX1 binding intensity was 1220.
Regarding CCTGCGGGGGGTGCGTGGGCGGGACTCCCGGCTCCT, the RUNX1 binding intensity was 915.
Under CTTTGTGGCTTTTTCTTGGTAGTTGGGCAGGGAGCC stands 1720; under GGCCTCGGCCACATACGGGTTCCACCGCAGATTCGG, 792; under CTCCCCCAGCACAGCCTCTGCCACCGCTGCCTTTCC, 1190.
Under CTGCGGCGGGGGCTGACATCACAGCAAGGACACTGT stands 744; under ACTTGACTGCCTGTGGGGTGTGTGGTGTCTGCACTT, 822.
Under GCCCCCAACTCCCACACACAGCCCCTTCGTCCTCCC stands 1400; under CCAAGGCTATGCTTTTTTTTGGCAAGCCACATCCAA, 740; under CCCACTCCACTGCCGCCACCGCCGCAGCCGCCGCTG, 1230.
Regarding TCGAGAAACCGCCCCCGCCTCAGCAAGGGGTAGGCG, the RUNX1 binding intensity is 773.
Turning to CTGCAGATGCATCTCCTTTTTGTGGTAGCAAGCGTG, the RUNX1 binding intensity was determined as 799.
The figure for CCGGAGGTTGCGGGAGCTGAGGGATGAAACAGGGAC is 936.
Under ATAAGGAGGCCGGCGCACTGATTTGTGGTTGTTGCC stands 720; under TTGGAGGCGGCAACAGGCACCGAAAGCGGTGGAAGT, 734; under AAAGGGACGTTCGCGGGAGGTCAAAACCACCGGGGC, 732.
The sequence CTGACGCATTCCCGGCCTTTGCGGTTGATCGGTCAT showed an RUNX1 binding intensity of 3000.
The figure for TGCGAGCACCCGGGAGCCGCTTGCGGGCTCCCGGAG is 641; for CTGGCCGTGGCGTACGGGAGCTGTGGGGCCGTCCCC it is 728.
AGGGGCTTGTGGGAACCGGCCGAAACCGGCTGTGGA registered an RUNX1 binding intensity of 639.
The figure for GTGAACTCCCTCCCCCACTGCCTATTTTTACCGCAG is 1930; for CAGGCCTGTGATCTCCTCTGAGTGGTTTTCTTGGCC it is 747; for GATCTTGCTGCAACCCCCCGAGACAACCACCGAACA it is 795.
The figure for GGCGCTAGGCCTCCGGATCGCGGTGGGCGGAGTTCA is 703; for TCATGCTGCTCCCTGCCCAACCCGCAGTTCCGATAA it is 1240.
Take TGCGCCTGCGGGAGGGAGCAGTGCCGGGTACGGTGC: the RUNX1 binding intensity amounted to 769.
Under CCAGCTGAAAGCCGGTCAGGGGGAACCGCGGCGGGG stands 730.
In turn, TCAGAACTTGGTTTTGAGAGTTTACTGTTTTCTTGA showed an RUNX1 binding intensity of 785.
The sequence ACTGTGGTCAGACCAAAGGAAGAAGTTCCCAACCTC showed an RUNX1 binding intensity of 943.
Take TTTTTTGCGCCCGCTTCAAACATGGCGGTCAAGCCC: the RUNX1 binding intensity turned out to be 882.
Under CAGTCCAGAATCCCACGCTCCCTAGCCCGCGGTGAG stands 760.
The figure for GGCCTGAAGCGCTCTCGTTGGCCCTGCGGCGCTGGA is 788; for GTGGCTATGGGGAGTGGGGTGCGGTTTCTGCCGGGG it is 1430.
As for GGTTCGCGGCTTACGGGACATTTGTACCGCAGGGGG, the RUNX1 binding intensity was determined as 787.
Under GACTGCGGCTCTTCCTCGGGCAGCTGAAGCGGCGCA stands 1070; under CGGCCCCCGGGGTGGTTAGCGCTTACGGGGTCGAAG, 714.
Consider CGCCTCGCCTCTTGCCGCCAGCGCCCGCAGGACCCG, for which the RUNX1 binding intensity was 1050.
The figure for GACCCATTGCCTGGCTCAGGAGCCCACAGCCCTGGG is 818.
The figure for TGGGGTTTTCTGGGGAGAAACTTAGCCCTACCACAC is 666; for TGGATATACCCGCAGGTCCAGAATCGTTTTCGGACC it is 882.
With CATCTCGGGAACGGACAGCAAGATCCCGCATTAACA, the RUNX1 binding intensity is 919.
Sequence AAGGCTGTGGGTAAGGCGACATTGCCTGCCCCCGGG showed an RUNX1 binding intensity of 737.
TTCTCATTTGTGGGTATCTGACAACAACCTCCTCTC showed an RUNX1 binding intensity of 1050.
Under CTCTTTGTGGCTCCCGCGAGAGTCCGCCTTCGGCCG stands 1030; under GGCCGTACGCCATCTTGCTGGTTTGCGGCCGGTCTT, 771.
In the case of GCCCCGCCCCCGGGCGCCCAGCCGCGGTCCCAGCGA, the RUNX1 binding intensity was 816.
The figure for AACAAACCTGATGGGGTTCCCACCCGCAATCTTGTC is 975; for GGAACCCACATAATCCGCCAAGGGGTTCAGGTGCGA it is 871; for TAGCCACTAACCTGAAACGTTAAACCACAGCTCCGT it is 1120.
Regarding TGATGCACTTGCTGAGGGCCCGCATGTGGTAAACAC, the RUNX1 binding intensity is 695.
In the case of ATTTTGCGGCCGCCGTAAAGCGCGTATGCGCGGCGT, the RUNX1 binding intensity was determined as 865.
The figure for AACACTATTCCCTTTCTTGCTGCCCACATTTTAACA is 2580; for GTCACCATTCCCGGGCCTCCGCGGTGTCCCCACCCC it is 1060.
Under TGTCTCTCACCACAAAATCCACCTCCTATGATGTTT stands 3020 ± 950; under CCGGGAAGGCGCAAGCAGCAGAGACGCCGCAAGGCC, 644.
The figure for CAAGGAGGCTCCCTGCGTGGGGCCGCAGAGCGAGTC is 666; for CACGGGGCGGTCAACCCCAGGAGGACATATCGCTTC it is 829.
Sequence GGCCAAACCACTTTATCGTGGAGCCAATTGCCTCAG yielded an RUNX1 binding intensity of 861.
Under CAACGACACCAAACCACCACCACTTGCTTGAATCTG stands 1010.
Under AGCGCGAGGCCGCAGCGGGGAGTGACCGGGAGTGGC stands 675.
Sequence GGATCGGCCTGCGGTGTGTCTCATTTGCTGTAGGTA returned an RUNX1 binding intensity of 943.
Under TGCTGCGAGCCACAAACATGGTGTCCGTCGGGCCCG stands 674; under TCCTTAATGGTTTCGGCGGCAGGGACCGCAGCGACG, 737.
The figure for GTTCTTATGCTGTGGCTCGTTTGTGGTTACTGACAT is 2360.
For the sequence TTGGTTTCAGTGGGTTTTGGCCAGCTCCCTTACCAG, the RUNX1 binding intensity was 730.
The sequence CGTGTTTTGTGGCTGTGTTCTGTCCAGTCAGTTGTT displayed an RUNX1 binding intensity of 947 ± 57.
Under CTTACTATATTACCGCCGGTACACATGCGCCCGACA stands 965; under CGAGAACGGCGCCACAGAGGAACCTGAAACAAGCCA, 734; under TCAGGAGCCGCGGTCGGGCGGGGCTTACGGGAGCAA, 799.
Under GATGTGGGCTTGCGCGCAAACAGCCCGTAAATGAGG stands 744; under CTGCTGCGGGGAGTTGCTAGTACATGAAAAGAGGTC, 812.
Under GAGGTGGTACCGCAGGCCGCGTTGACCGAAAAGTAG stands 1110; under CCAGGCGGGAACCGCAGTGTTCCAGGGACCGTTCTG, 1320; under GGGATCTGGGTTGTGGGGTGCAGGATCTGGGGTGCT, 705.
For the sequence AGAAACACCCTGCCCAGCCACCTGACCACAAGGCAC, the RUNX1 binding intensity was determined as 1280.
Under CATTGTGGGCGCTGTAGTCCAGCTGGAACCTGTTTG stands 760; under TACCATAAAACGTCCCTGGGGAAACCGCCCACTCCC, 851.
Under TACAGCACCGCATATGGCTGAGGGAGGAGCAAGGGA stands 664.
For ACTGCCGCAACTAGGGGCAGCTCTACTCCCGGTGCC, the RUNX1 binding intensity stood at 776.
The figure for TCTGGATTGCCTGTGGGGCTCTCCCACAAGCAGTAC is 690.
The figure for AACCCTGAGACAGCCGCAGCCACTTGCTGGGTGAGG is 775; for CAGCACACACCGCACGGGGCGACAGCTTACGGGGGC it is 911.
On to GTGCGTCCTTCAGTCTCACCTCCCTGCGGCGTGGGC, for which the RUNX1 binding intensity amounted to 768.
The figure for TTGCGCCGGGCGCCACTTTCGGTCCCCGTGGTCACG is 768.
GGGAGGGCCGAAGGCGGCTCTGCGGCAGCAAGCCCC displayed an RUNX1 binding intensity of 1220.
AGCTCAATTTGCTGGCGTGTAACATGGCCACAAGGG returned an RUNX1 binding intensity of 711.
The figure for ACACAAACAGCAAGTGTTTGTGGTCCCTGCCTTTAG is 772; for GAGATTCTGTGGCTGGGTCTGTCTGTTTCGTGCTAG it is 810; for CGGACCGAAAGTGCCCGAGGGCGGCCGCAGAACGGT it is 766.
Under GGAGATGTGGGCGCCGAGAAGTGGAGCAGGGAGCGA stands 705; under AGGCCACCCCCTGCCTCCGCCCGCGGGTCGCAGCCT, 757; under GGTGGCCGCAAATAGATATGCATACGGGCGTTACAC, 800.
The figure for GGAGCGGCCGAAGGGAGCTTGCGGCGGGAGGCTGAA is 739; for CCAGAACAAACCACACCCCACTGCCTGTTGCATGCA it is 1210; for GGTTTTGGTAAGAAGGAAAGTGGTTTTCATAGGAAG it is 787.
In turn, CCTTGCGTCCTTCGGTGCAACCTGCGGGAATCCCAT had an RUNX1 binding intensity of 819.
Under AGCTTGTACGGTGGCTGCTGCGCTGCCGCAACGAAT stands 764; under GACGAAGCGCGGTCTCACCACGCCCGGGGAAATCGG, 784; under AACAAGGCTGTGGGTGAACCCCAGCTTGCTGCAAAG, 700.
Under CATGGGGAGGAGGAGGTGGTGGCGGCCGCAGGCCAG stands 793; under CAGTGGTTAGGCAGAGGAGGACATACTGCCTGTAAT, 812; under GCCGGCGACCTCCTCCCTTTGTGGGCGCTCCCTGCA, 802.
Sequence CTGGTGCCCACAGGACAAATGTCATGCTGTATGTAT showed an RUNX1 binding intensity of 744.
In turn, ACCTTCGCCGGGTGCTGTGGCTGAAACCACAGCATT came in with an RUNX1 binding intensity of 854.
TGGGGGACGGGACCGCGGGAACCCGGCAACGCCTGG: the RUNX1 binding intensity came out at 740.
The figure for AGCCAGCCTGATAGGAGATCCTCCCACCACAGCTGA is 744.
The figure for TGTTAGGACGTAAGACCGAAAGAGACACACCCACAA is 829; for CTAGCCATGAAGATAAAGAAGAAACCACCAAAGAGA it is 785.
Under CAGAGGCAGCCCACCCCATAAAAGAACCACAGATAA stands 814; under GTGGCCACTTGAACCGCAGATGCTTGCTGGGCTGGT, 2540; under GCTCAAGTATCGGAAAGGCCCGCAGAAAGAAGGGCA, 734.
In turn, CGCCCGACCGCGTCACGTGTTCGTCAATTGCCTTCA displayed an RUNX1 binding intensity of 1090.
Under ACCGCTGAGGCGGTTTCCCACCGACTGCCTTTCCAT stands 1040.
Under CCAGGGCCGAAAGTGCTGGTGGTGGTTTCCATCATG stands 800.
The figure for TGACAGACCCGGGAATAAGAGGAGACCACACACTTG is 772; for CTGTGTAAATAAAGCCACAGACTTCCACCTACAGGT it is 954 ± 84; for AAGACAGTCGCGGTGGGCGGGGACAGGCAGTAAGAC it is 778.
Take ATGGTGCCCGCCGCAGCCGAGGACCGTATAGCCCGC: the RUNX1 binding intensity came to 810.
For CGAAGGAGCAAGCTGCACAGGGTGTCTGTGGCTGGC, the RUNX1 binding intensity turned out to be 625.
The sequence CGAGCATGAAGAAAGCCAGGCTGCGGGGCTGGGGGC gave an RUNX1 binding intensity of 727.
Under ACTGATAACAAGACCGCGAGTCAGGGAGCCTGGGTT stands 817; under TGGATAACCGCGCAAGGTCTCGCGGCAAGGAGAGGA, 812; under TGGAATTGAAAGGAGGCTGGCGCCACCGCAGAGGAC, 765.
The figure for TGCCGTTTTCGGGTCACCCAGGCAGCTTGTGGCGGC is 710.
CAGCCCAGTGGGAACTGGGAGGGGCGGTCAGCAAGA: the RUNX1 binding intensity worked out at 792.

These data come from the supplement of paper PMC10681739.
